The campaign covered roughly 73,000 compounds. About 1,800 (2.5%) were called active. Inconclusive means that the source gave no clear call. Such entries were picked first, then a sample of the others. Calls follow the shape of the dose curve; as a rule, active = well fitted activation curve with a large enough effect; inconclusive = small, poorly fitted or top-dose-only effect; inactive = no such curve, though single readings can be large or run the other way. Potencies of inconclusive entries are left out as doubtful fits.
Test: qHTS Assay for Agonists of the Thyroid Stimulating Hormone Receptor: Activators of Intracellular cAMP Concentrations in Parental HEK 293; also: nearly all actives have a fitted effect of over 55% in size; as to activation: % of control where 0% means no effect
Details: parental HEK293 CNG cAMP sensor, membrane potential fluorescence; activation: at 57.1 µM (top of the series) unless noted
Method in brief: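 Parental HEK 293 cells stably expressing a cAMP-gated CNG channel were loaded with membrane potential dye containing 100 uM RO 20-1724 for 60 min. Compound added for 30 min; depolarization read as fluorescence intensity at 590 nm.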
Potency is read from the fitted curve at half-maximal effect; tags tell the direction and shape of the fitted curve.

| Compound | Potency | activation |
| --- | --- | --- |
| Cc1cc(NC(=O)CCCSc2nc(-c3ccco3)cc(C(F)(F)F)n2)no1 | inconclusive [activator, single point] | – |
| CCCn1nc(-c2ccccc2)c2nc3ccccc3nc21 | inconclusive [activator, partial curve, poor fit] | – |
| CCC(c1nnnn1C1CCCC1)N1CCN(c2ccccc2F)CC1 (centres undefined) | inconclusive [activator, partial curve] | – |
| CCn1c(SCc2ccc(C(=O)OC)o2)nc2sc3c(c2c1=O)CCCC3 | inconclusive [activator, partial curve] | – |
| COc1ccc(C2C(C(=O)N3CCN(c4ccccc4F)CC3)c3ccccc3C(=O)N2C)cc1 (centres undefined) | inconclusive [activator, single point] | – |
| CCOc1ccc(N(CC(=O)OC)S(=O)(=O)c2c(C)noc2C)cc1 | inconclusive [activator, single point] | – |
| CN(C)/C=N/c1cnc(C(=O)c2ccc(Cl)cc2)n1C | inactive | – |
| CCCCN1C(=O)C(NC(C)=O)c2cc(Br)ccc21 (centres undefined) | inconclusive [activator, partial curve] | – |
| Cc1c(Cl)cc(C(C)(C)C)c(O)c1Cc1c(C)c(Cl)cc(C(C)(C)C)c1O | – | inactive: 1.8% [at 11.4 µM] |
| CCCCn1c2nc3ccccc3nc2c2c(=N)oc(C)nc21 | inconclusive [activator, partial curve] | – |
| O=C(C1CC(c2ccccc2O)=NO1)N1CCCC1 (centres undefined) | inactive | – |
| COC(=O)N1CCC2(CCCN(c3ccccn3)C2)CC1 | inconclusive [activator, partial curve] | – |
| O=C(CCSc1nc(-c2ccco2)cc(C(F)(F)F)n1)Nc1ccc2c(c1)OCO2 | inconclusive [activator, partial curve] | – |
| CC1(C)CC(=O)C=C(NCC2CCCO2)C1 (centres undefined) | inconclusive [activator, partial curve, poor fit] | – |
| Cc1sc2ncnc(SCC(=O)NC(=O)NCc3ccco3)c2c1C | inactive | – |
| COC(=O)[C@@]1(Cc2ccc(OC)cc2)[C@H]2c3cc(C(=O)N4CCCC4)n(CCc4c[nH]c5ccccc45)c3C[C@H]2CN1C(=O)c1ccccc1 | inconclusive [activator, single point] | – |
| CCn1ncc(Br)c1C(=O)Nc1ccc(F)cc1F | inconclusive [activator, single point] | – |
| O=C(OCC1CO1)C1CCCCC1C(=O)OCC1CO1 (centres undefined) | inactive | – |
| FC(F)(F)c1cccc(Cl)c1 | inactive | – |
